Experimental data published in publication PMC6581563 (Journal of medicinal chemistry, 2019).

Legend:
[1] = cited from earlier work
rat brain MAGL [2] = biological target: T1, rat brain MAGL (Rattus norvegicus, UniProt Q8R431); assay: [3H]2-OG hydrolysis assay, cytosolic preparation from rat brain; assay type: biochemical; settings: for Potency towards MAGL at single concentration, hydrolysis of [3H]2-OG: 1 μM
T1 sequence (Q8R431 1-303): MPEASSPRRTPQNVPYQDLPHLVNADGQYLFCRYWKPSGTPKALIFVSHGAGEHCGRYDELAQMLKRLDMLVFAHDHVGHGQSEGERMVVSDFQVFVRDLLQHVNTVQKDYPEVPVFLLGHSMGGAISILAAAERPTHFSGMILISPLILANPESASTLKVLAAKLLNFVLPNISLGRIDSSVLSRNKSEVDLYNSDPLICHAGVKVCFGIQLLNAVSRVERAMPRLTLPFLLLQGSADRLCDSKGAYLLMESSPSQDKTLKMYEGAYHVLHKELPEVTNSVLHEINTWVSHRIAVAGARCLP

FAAH = assay: ABPP selectivity assay, FAAH; assay type: biochemical, rat; settings: concentration up to 10 μM
ABHD6 = assay: ABPP selectivity assay, ABHD6; assay type: biochemical, rat; settings: up to a concentration of 10 μM
ABHD12 = assay: ABPP selectivity assay, ABHD12; assay type: biochemical, rat; settings: up to a concentration of 10 μM
CB1 receptor = CB1 receptor (Homo sapiens, UniProt P21554); assay: CB1 agonist and antagonist assays; assay type: cell-based; settings: up to a concentration of 30 μM
CB2 receptor = CB2 receptor (Homo sapiens, UniProt P34972); assay: CB2 agonist and antagonist assays; assay type: cell-based; settings: up to a concentration of 30 μM
[3] = LogD by shake flask method; assay type: physicochemical; settings: n-octanol/PBS
rat brain MAGL [4] = biological target: T1, rat brain MAGL; assay: Activity-based protein profiling; assay type: biochemical; settings: 1 μM
MAGL [5] = biological target: T2, MAGL (Rattus norvegicus, UniProt Q8R431); assay: PET blocking study with KML29 pretreatment in rats; assay type: in vivo, Sprague-Dawley rats; settings: KML29 3 mg/kg
T2 sequence (Q8R431 1-303): T1 sequence (Q8R431 1-303)

[6] = Radiometabolite analysis by radioHPLC; settings: 30 min post-injection; for Fraction of parent in plasma: mouse plasma
[7] = Ex vivo whole body biodistribution in mice; settings: for Initial uptake in heart and lungs: at 1 min
[8] = Dynamic PET imaging in Sprague-Dawley rats; settings: for Brain uptake (BBB permeability) in rats: Sprague-Dawley rats, 90 min PET
Pgp/Bcrp = assay: PET imaging in wild-type and Pgp/Bcrp knockout mice; settings: at 2.5 min for 49, at 11 min for 50
MAGL [9] = biological target: T3, MAGL (Mus musculus, UniProt O35678); assay: Ex vivo blocking biodistribution with KML29 pretreatment; settings: pre-treatment with KML29 3 mg/kg
T3 sequence (O35678 1-303): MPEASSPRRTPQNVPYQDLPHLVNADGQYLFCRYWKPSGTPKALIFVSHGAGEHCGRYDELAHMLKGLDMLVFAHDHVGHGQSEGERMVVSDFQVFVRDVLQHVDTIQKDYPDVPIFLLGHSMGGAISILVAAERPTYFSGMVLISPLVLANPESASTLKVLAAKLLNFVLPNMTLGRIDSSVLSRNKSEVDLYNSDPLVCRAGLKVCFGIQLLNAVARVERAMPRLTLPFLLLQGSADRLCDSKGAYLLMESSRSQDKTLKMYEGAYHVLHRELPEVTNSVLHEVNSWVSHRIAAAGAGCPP

rat brain MAGL [10] = biological target: T1, rat brain MAGL; settings: 60 min preincubation phase; cited from earlier work

UniProt P34972, sequence (P34972 whole entry): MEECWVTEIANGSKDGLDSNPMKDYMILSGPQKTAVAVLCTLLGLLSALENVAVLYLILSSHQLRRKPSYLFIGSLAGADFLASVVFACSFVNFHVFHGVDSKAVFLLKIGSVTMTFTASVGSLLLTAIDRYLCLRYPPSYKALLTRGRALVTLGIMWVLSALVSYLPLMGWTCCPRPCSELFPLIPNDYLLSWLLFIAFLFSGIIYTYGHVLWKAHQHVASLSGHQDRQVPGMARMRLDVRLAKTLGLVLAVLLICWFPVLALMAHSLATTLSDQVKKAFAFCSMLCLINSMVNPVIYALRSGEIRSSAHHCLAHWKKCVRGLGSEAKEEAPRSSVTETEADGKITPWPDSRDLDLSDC
UniProt P21554, sequence (P21554 whole entry): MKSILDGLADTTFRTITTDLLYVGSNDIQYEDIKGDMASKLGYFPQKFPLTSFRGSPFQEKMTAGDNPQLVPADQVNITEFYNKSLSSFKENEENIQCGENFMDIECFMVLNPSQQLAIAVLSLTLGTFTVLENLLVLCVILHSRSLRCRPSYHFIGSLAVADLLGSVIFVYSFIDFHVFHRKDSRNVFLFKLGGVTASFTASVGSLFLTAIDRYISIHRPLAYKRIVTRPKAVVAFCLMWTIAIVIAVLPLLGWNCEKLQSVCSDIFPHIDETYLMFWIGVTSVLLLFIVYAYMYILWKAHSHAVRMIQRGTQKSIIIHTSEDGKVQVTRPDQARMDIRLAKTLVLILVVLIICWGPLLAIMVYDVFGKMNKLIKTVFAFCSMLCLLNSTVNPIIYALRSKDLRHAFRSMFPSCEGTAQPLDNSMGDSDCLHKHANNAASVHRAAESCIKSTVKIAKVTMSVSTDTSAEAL

SMILES: CN(C)C(=O)n1nnc(Cc2ccc(-c3ccccc3)cc2)n1 [2,5-regioisomer of LY2183240]
- cLogP [1]: 4.03

SMILES: O=C(OC(C(F)(F)F)C(F)(F)F)N1CC(N2CCN(C(=O)c3nccs3)CC2)C1 [Compound 8, 1,1,1,3,3,3-hexafluoropropan-2-yl 3-(4-(thiazole-2-carbonyl)piperazin-1-yl)azetidine-1-carboxylate]
- IC50 (rat brain MAGL [2]): 0.88 ± 0.05 nM
- Time-dependent inhibition of [3H]2-OG hydrolysis (rat brain MAGL [2]; three tested concentrations 0.3, 1 and 3 nM): preincubation-time-dependent inhibition
- Inhibition of FAAH in ABPP assay (FAAH): none of them showed significant inhibition
- Interactions with ABHD6 (ABHD6): no significant interactions
- Interactions with ABHD12 (ABHD12): no significant interactions
- Interactions with CB1 receptor (agonism/antagonism) (CB1 receptor): no significant interactions
- Interactions with CB2 receptor (agonism/antagonism) (CB2 receptor): no significant interactions
- logD [3]: 1.9 ± 0.38

SMILES: O=C(c1nccs1)N1CCN(C2CN(C(=O)n3cncn3)C2)CC1 [Compound 10, (4-(1-(1H-1,2,4-triazole-1-carbonyl)azetidin-3-yl)piperazin-1-yl) (thiazol-2-yl) methanone]
- IC50 (rat brain MAGL [2]): 10 ± 4.2 nM

SMILES: O=C(c1nccs1)N1CCN(C2CN(C(=O)n3nnc4ccccc43)C2)CC1 [Compound 11, (4-(1-(1H-benzo[d][1,2,3]triazole-1-carbonyl)azetidin-3-yl)piperazin-1-yl) (thiazol-2-yl)methanone]
- IC50 (rat brain MAGL [2]): 87.1 ± 12.4 nM

SMILES: COc1cc(C(=O)N2CC(N3CCN(C(=O)c4nccs4)CC3)C2)ccc1-c1ccc(Cl)c(C(F)(F)F)c1 [Compound 17, (4-(1-(4’-chloro-2-methoxy-3’-(trifluoromethyl)-[1,1’-biphenyl]-4-carbonyl)azetidin-3-yl)piperazin-1-yl)(thiazol-2-yl)methanone]
- Potency towards MAGL at single concentration, hydrolysis of [3H]2-OG (rat brain MAGL [2]): most potent MAGL inhibitors
- Potency towards MAGL at single concentration, ABPP (rat brain MAGL [4]): most potent MAGL inhibitors
- Inhibition of FAAH in ABPP assay (FAAH): none of them showed significant inhibition
- Interactions with ABHD6 (ABHD6): no significant interactions
- Interactions with ABHD12 (ABHD12): no significant interactions
- Interactions with CB1 receptor (agonism/antagonism) (CB1 receptor): no significant interactions
- Interactions with CB2 receptor (agonism/antagonism) (CB2 receptor): no significant interactions
- logD [3]: 3.35 ± 0.5

SMILES: O=C(c1ccc(N2CCC(F)C2)cc1)N1CC(N2CCN(C(=O)c3nccs3)CC2)C1 (stereo not shown) [Compound 37, (4-(1-(4-(3-fluoropyrrolidin-1-yl)benzoyl)azetidin-3-yl)piperazin-1-yl)(thiazol-2-yl)methanone]
- Potency towards MAGL at single concentration, hydrolysis of [3H]2-OG (rat brain MAGL [2]): most potent MAGL inhibitors
- Preincubation time-dependence of inhibition of [3H]2-OG hydrolysis (rat brain MAGL [2]; 30, 100 and 300 nM): no preincubation time-dependent increase in observed inhibition
- Jump dilution: recovery of inhibition after 20-fold dilution (rat brain MAGL [2]; 60 min preincubation then 20-fold dilution, 0.5 μM [3H]2-OG): no recovery of inhibition
- Potency towards MAGL at single concentration, ABPP (rat brain MAGL [4]): most potent MAGL inhibitors
- Inhibition of FAAH in ABPP assay (FAAH): none of them showed significant inhibition
- Interactions with ABHD6 (ABHD6): no significant interactions
- Interactions with ABHD12 (ABHD12): no significant interactions
- Interactions with CB1 receptor (agonism/antagonism) (CB1 receptor): no significant interactions
- Interactions with CB2 receptor (agonism/antagonism) (CB2 receptor): no significant interactions
- logD [3]: 2.7 ± 0.04

SMILES: O=C(c1ccc(N2CCC(F)CC2)cc1)N1CC(N2CCN(C(=O)c3nccs3)CC2)C1 [Compound 38, (4-(1-(4-(4-fluoropiperidin-1-yl)benzoyl)azetidin-3-yl)piperazin-1-yl)(thiazol-2-yl)methanone]
- Potency towards MAGL at single concentration, hydrolysis of [3H]2-OG (rat brain MAGL [2]): most potent MAGL inhibitors
- Potency towards MAGL at single concentration, ABPP (rat brain MAGL [4]): most potent MAGL inhibitors

SMILES: O=C(c1nccs1)N1CCN(C2CN([11C](=O)OC(C(F)(F)F)C(F)(F)F)C2)CC1 [Compound 48, 1,1,1,3,3,3-hexafluoropropan-2-yl 3-(4-(thiazole-2-carbonyl)piperazin-1-yl)azetidine-1-carboxylate-^11C]
- Reduction of whole brain uptake after KML29 pretreatment, based on AUC (MAGL [5]): ~ 50%
- Fraction of remaining parent in brain homogenate ([6]; mouse brain homogenate): 96%
- Radioactivity level in liver, adrenal glands, kidney and brown adipose tissue ([7]; 30 min after injection): > 5 % ID/g
- Maximum standard uptake value (SUV) in the whole brain ([8]; rat, at 3.5 min): 2.26 SUV

SMILES: [11CH3]Oc1cc(C(=O)N2CC(N3CCN(C(=O)c4nccs4)CC3)C2)ccc1-c1ccc(Cl)c(C(F)(F)F)c1 [Compound 49, (4-(1-(4’-chloro-2-(methoxy-^11C)-3’-(trifluoromethyl)-[1,1’-biphenyl]-4-carbonyl)azetidin-3-yl)piperazin-1-yl)(thiazol-2-yl)methano-ne]
- Fraction of parent in plasma [6]: 62%
- Initial uptake in heart and lungs [7]: > 15 % ID/g
- SUV1 min / SUV60 min ratio in blood [7]: 5.1
- Brain uptake plateau in Pgp/Bcrp knockout mice (Pgp/Bcrp): 1.4 SUV
- Blocking effect (decrease of uptake) in BAT (MAGL [9]): 63%
- Blocking effect (decrease of uptake) in adrenal glands (MAGL [9]): 13%
- Brain uptake (BBB permeability) in rats [8]: ca. 0.4 SUV

SMILES: O=C(c1ccc(N2CCC([18F])C2)cc1)N1CC(N2CCN(C(=O)c3nccs3)CC2)C1 (stereo not shown) [Compound 50, (4-(1-(4-(3-(fluoro-^18F)pyrrolidin-1-yl)benzoyl)azetidin-3-yl)piperazin-1-yl)(thiazol-2-yl)methanone]
- Fraction of parent in plasma [6]: 45%
- Ratio of %ID/g 1 min/60 min in heart [7]: 6.34
- Ratio of %ID/g 1 min/60 min in lungs [7]: 10.38
- Initial uptake in heart and lungs [7]: > 15 % ID/g
- SUV1 min / SUV60 min ratio in blood [7]: 3.5
- Brain uptake plateau in Pgp/Bcrp knockout mice (Pgp/Bcrp): 1.0 SUV
- Blocking effect (decrease of uptake) in BAT (MAGL [9]): 88%
- Blocking effect (decrease of uptake) in adrenal glands (MAGL [9]): 80%
- Brain uptake (BBB permeability) in rats [8]: ~0.3 SUV

SMILES: O=C(Oc1ccc([N+](=O)[O-])cc1)N1CCC(C(O)(c2ccc3c(c2)OCO3)c2ccc3c(c2)OCO3)CC1 [JZL184]
- Residual activity of rat cerebellar 2-OG hydrolysis (rat brain MAGL [10]): ~ 10%
